Whole data set: some 81,000 sequences, median “one-hybrid fitness for binding parS DNA” near -0.17, cut for the highest 2% near 0.51. This is one part of the list.
B1: Caulobacter ParB omega fusion; a variant is named by its letters at X, in order, B8GW30 (parent)
chain: MESVVVGEPGMSEGRRGLGRGLSALLGEVDAAPAQAPGEQLGGSREAPIEILQRNPDQPRRTFREEDLEDLSNSIREKGVLQPILVRPSPDTAGEYQIVAGERAWRAAQRAGLKTVPIMVRELDDLAVLEIGIIENVQRADLNVLEEALSYKVLMEKFERTQENIAQTIGKSXSHVANXMRLLXLPDEVQSYLVSGELTAXHARAIAAAADPVALAKQIIEGGLSVRETEALARKAPNLSAGKSKGGRPPRVKDTDTQALESDLSSVLGLDVSIDHRGSTGTLTITYATLEQLDDLCNRLTRGI

Variants of: B1
Test: one-hybrid fitness for binding parS DNA (scaled: cognate 1, non-cognate 0); higher = stronger binding
Conditions: with parS DNA site
In short: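 Fitness is the rescaled log change in variant-to-wild-type read ratio, measured by Illumina sequencing of plasmids before and after bacterial one-hybrid selection. The scale puts cognate at 1 and non-cognate at 0. Selection of Caulobacter ParB libraries, four specificity codons randomised, took place in E. coli USO with a HIS3 reporter, site 19 bp from the promoter, over 48 hours at 37°C on M9-minus-histidine with 0.1 mM IPTG and 5 mM 3-AT.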

Variant | one-hybrid fitness for binding parS DNA
TPNL | ≤ 0.2
AILI | ≤ 0.2
MSTC | ≤ 0.2
SPSW | ≤ 0.2
PTAT | ≤ 0.2
DCPG | ≤ 0.2
VPRL | ≤ 0.2
TSDR | ≤ 0.2
LLPL | ≤ 0.2
NNAT | ≤ 0.2
GVMT | ≤ 0.2
TLAC | ≤ 0.2
TKKA | ≤ 0.2
HDNL | ≤ 0.2
CRKV | ≤ 0.2
RNQY | 0.38
YQPE | ≤ 0.2
EWIS | ≤ 0.2
RQQM | 0.344
EKHL | ≤ 0.2
RWMN | 0.211
WHNT | ≤ 0.2
PVGR | ≤ 0.2
RNTM | 0.233
RHRD | ≤ 0.2

Variant | one-hybrid fitness for binding parS DNA
NLFT | ≤ 0.2
SQLI | ≤ 0.2
WAEL | ≤ 0.2
HSGN | ≤ 0.2
PTGE | ≤ 0.2
HMKT | ≤ 0.2
GPMF | ≤ 0.2
ICWG | ≤ 0.2
AWLR | ≤ 0.2
NPES | ≤ 0.2
QRHW | ≤ 0.2
QLVS | ≤ 0.2
DTVK | ≤ 0.2
KKHY | ≤ 0.2
TNQV | ≤ 0.2
VKRA | ≤ 0.2
NVDW | ≤ 0.2
RGMF | ≤ 0.2
REDG | ≤ 0.2
NDVT | ≤ 0.2
SWCS | ≤ 0.2
MPLT | ≤ 0.2
AWNT | ≤ 0.2
MLKC | ≤ 0.2
SVIN | ≤ 0.2

Variant | one-hybrid fitness for binding parS DNA
AYHY | ≤ 0.2
DNRC | ≤ 0.2
HSRD | ≤ 0.2
EQTF | ≤ 0.2
QATL | ≤ 0.2
LMCK | ≤ 0.2
QFDG | ≤ 0.2
RAIA | 0.461
IDSE | ≤ 0.2
IHAS | ≤ 0.2
TLHI | ≤ 0.2
TRPH | ≤ 0.2
NTTG | ≤ 0.2
IPPR | ≤ 0.2
HEHS | ≤ 0.2
LANI | ≤ 0.2
TNLD | ≤ 0.2
PEHG | ≤ 0.2
QWYR | ≤ 0.2
YLKS | ≤ 0.2
PTFV | ≤ 0.2
TYIS | ≤ 0.2
KYTK | ≤ 0.2
SSSW | ≤ 0.2
ENRC | ≤ 0.2

Variant | one-hybrid fitness for binding parS DNA
DAVV | ≤ 0.2
VSKF | ≤ 0.2
TATN | ≤ 0.2
HVLL | ≤ 0.2
VILS | ≤ 0.2
SHTP | ≤ 0.2
WNHS | ≤ 0.2
WVTL | ≤ 0.2
DHWS | ≤ 0.2
SCDS | ≤ 0.2
IYSL | ≤ 0.2
AFVP | ≤ 0.2
HMFN | ≤ 0.2
KAHN | ≤ 0.2
RTGC | 0.955
RQFK | 0.201
NHRF | ≤ 0.2
YYRS | ≤ 0.2
RQVD | ≤ 0.2
TPEQ | ≤ 0.2
LQFG | ≤ 0.2
GIFS | ≤ 0.2
EHNM | ≤ 0.2
CIST | ≤ 0.2
RQTR | ≤ 0.2

Variant | one-hybrid fitness for binding parS DNA
DKPN | ≤ 0.2
DTYG | ≤ 0.2
VSWT | ≤ 0.2
VIIR | ≤ 0.2
PRSH | ≤ 0.2
AVPD | ≤ 0.2
VLQG | ≤ 0.2
DLWM | ≤ 0.2
VPMG | ≤ 0.2
DVPS | ≤ 0.2
QMPD | ≤ 0.2
KWDT | ≤ 0.2
QCES | ≤ 0.2
KRLN | ≤ 0.2
HAWS | ≤ 0.2
ERGK | ≤ 0.2
QTNL | ≤ 0.2
RMAQ | ≤ 0.2
LPPN | ≤ 0.2
TPHT | ≤ 0.2
LIVC | ≤ 0.2
HENI | ≤ 0.2
PQKM | ≤ 0.2
LFPF | ≤ 0.2
VKWV | ≤ 0.2

Variant | one-hybrid fitness for binding parS DNA
QCAH | ≤ 0.2
RAHH | 0.26
YTTG | ≤ 0.2
QSGD | ≤ 0.2
RCAI | ≤ 0.2
THAI | ≤ 0.2
FNVV | ≤ 0.2
KRTK | ≤ 0.2
FEAL | ≤ 0.2
GISG | ≤ 0.2
EFNW | ≤ 0.2
KHQR | ≤ 0.2
MAKV | ≤ 0.2
FMAV | ≤ 0.2
QYIA | ≤ 0.2
SPPM | ≤ 0.2
RYSW | ≤ 0.2
ETAV | ≤ 0.2
KNWS | ≤ 0.2
VCSL | ≤ 0.2
PLES | ≤ 0.2
VLAC | ≤ 0.2
QSDN | ≤ 0.2
YFAC | ≤ 0.2
NWLA | ≤ 0.2

Variant | one-hybrid fitness for binding parS DNA
MFRS | ≤ 0.2
LWAI | ≤ 0.2
CPNG | ≤ 0.2
PAHV | ≤ 0.2
AAEC | ≤ 0.2
IKCV | ≤ 0.2
RQPW | ≤ 0.2
RRMV | ≤ 0.2
AGCM | ≤ 0.2
KTTY | ≤ 0.2
YFQT | ≤ 0.2
HLEG | ≤ 0.2
KERY | ≤ 0.2
KIAD | ≤ 0.2
RTSW | 0.241
TVFG | ≤ 0.2
CTTS | ≤ 0.2
RELW | ≤ 0.2
VTPE | ≤ 0.2
MSLE | ≤ 0.2
AVTS | ≤ 0.2
LKCE | ≤ 0.2
KIQR | ≤ 0.2
RTTR | ≤ 0.2
DIEI | ≤ 0.2

Variant | one-hybrid fitness for binding parS DNA
KIAM | ≤ 0.2
MSPY | ≤ 0.2
TRAK | ≤ 0.2
ISQT | ≤ 0.2
KYKS | ≤ 0.2
RGAE | ≤ 0.2
CMRE | ≤ 0.2
SIDL | ≤ 0.2
PEVN | ≤ 0.2
MIPC | ≤ 0.2
VCYR | ≤ 0.2
CPTT | ≤ 0.2
IQLC | ≤ 0.2
RMQL | ≤ 0.2
GDHV | ≤ 0.2
IAFT | ≤ 0.2
HTSH | ≤ 0.2
VYSM | ≤ 0.2
NIPM | ≤ 0.2
HSFG | ≤ 0.2

Reference: a collection of fitness landscapes (doi:10.1016/j.celrep.2020.107928)
